Values after ≈ are worked out from the molar mass of the structure shown.
What was measured:
[1] = tested on: Clostridium difficile clinical isolate (CI); test: microbe, parasite or virus in culture; type: cell-based; conditions: Clostridioides difficile, read-out: MIC (CI)
[2] = tested on: vancomycin-resistant strain of Enterococcus faecalis ATCC51299 (VR); test: MIC by broth microdilution against vancomycin-resistant Enterococcus faecalis ATCC51299
[3] = tested on: Bacteroides fragilis (both ATCC25285 and a clinical isolate); test: Activity against Bacteroides fragilis (specificity); conditions: both ATCC25285 and a clinical isolate were tested

| SMILES | MIC [1] | MIC [2] | activity against Bacteroides fragilis [3] |
| --- | --- | --- | --- |
| Nc1ccc(-c2nc3cc(-c4ccc5[nH]cnc5c4)ccc3[nH]2)cc1 [Compound 8, 4-(1H,1′H-5,5′-bibenzo[d]imidazol-2-yl)aniline] | 1 to 16 mg/L (≈ 3.07 to 49.2 µM) | 1 to 16 mg/L (≈ 3.07 to 49.2 µM) |  |
| CNc1ccc(-c2nc3cc(-c4ccc5[nH]c(-c6ccc(NC)cc6)nc5c4)ccc3[nH]2)cc1 [Compound 6, 4,4′-(1H,1′H-5,5′-bibenzo[d]imidazole-2,2′-diyl)bis(N-methylaniline)] | < 1 mg/L | < 1 mg/L |  |
| Nc1ccc(-c2nc3cc(-c4ccc5[nH]c(-c6ccc(N)nc6)nc5c4)ccc3[nH]2)cn1 [Compound 11, 5,5′-(1H,1′H-5,5′-bibenzo[d]imidazole-2,2′-diyl)dipyridin-2-amine] | < 1 mg/L | 17 to 64 mg/L (≈ 40.6 to 153 µM) |  |
| Cn1c(-c2ccc(N)cc2)nc2ccc(-c3ccc4[nH]c(-c5ccc(N)cc5)nc4c3)cc21 [Compound 4, 4,4′-(3′-methyl-1H,3′H-5,5′-bibenzo[d]imidazole-2,2′-diyl)dianiline] | 17 to 64 mg/L (≈ 39.5 to 149 µM) | < 1 mg/L |  |
| Nc1cccc(-c2nc3cc(-c4ccc5[nH]c(-c6cccc(N)c6)nc5c4)ccc3[nH]2)c1 [Compound 2, 3,3′-(1H,1′H-5,5′-bibenzo[d]imidazole-2,2′-diyl)dianiline] | < 1 mg/L | 1 to 16 mg/L (≈ 2.4 to 38.4 µM) |  |
| Nc1ccc(-c2nc3cc(-c4ccc5[nH]c(-c6ccccc6)nc5c4)ccc3[nH]2)cc1 [Compound 9, 4-(2′-phenyl-1H,1′H-5,5′-bibenzo[d]imidazol-2-yl)aniline] | < 1 mg/L | < 1 mg/L |  |
| Nc1ccc(-c2nc3cc(-c4ccc5nc(-c6ccc(N)cc6)[nH]c5c4)ccc3[nH]2)cc1 [Compound 1, 4,4′-(1H,3′H-5,5′-bibenzo[d]imidazole-2,2′-diyl)dianiline] | < 1 mg/L | < 1 mg/L |  |
| COc1ccc(-c2nc3ccc(-c4ccc5[nH]c(-c6ccccc6)nc5c4)cc3[nH]2)cc1 [Compound 10, 2′-(4-methoxyphenyl)-2-phenyl-1H,3′H-5,5′-bibenzo[d]imidazole] | < 1 mg/L | < 1 mg/L |  |
| COc1ccc(-c2nc3cc(-c4ccc5[nH]c(-c6ccc(OC)cc6)nc5c4)ccc3[nH]2)cc1 [Compound 7, 2,2′-bis(4-methoxyphenyl)-1H,1′H-5,5′-bibenzo[d]imidazole] | < 1 mg/L | < 1 mg/L |  |
| Oc1ccc(-c2nc3cc(-c4ccc5[nH]c(-c6ccc(O)cc6)nc5c4)ccc3[nH]2)cc1 [Compound 3, 4,4′-(1H,1′H-5,5′-bibenzo[d]imidazole-2,2′-diyl)diphenol] | < 1 mg/L | < 1 mg/L |  |
| Cn1c(-c2ccc(N)cc2)nc2cc(-c3ccc4[nH]c(-c5ccc(N)cc5)nc4c3)ccc21 [Compound 5, 4,4′-(1-methyl-1H,1′H-5,5′-bibenzo[d]imidazole-2,2′-diyl)dianiline] | < 1 mg/L | < 1 mg/L |  |
| c1cc(-c2nc3cc(-c4ccc5[nH]c(-c6ccncc6)nc5c4)ccc3[nH]2)ccn1 [Compound 12, 2,2′-di(pyridin-4-yl)-1H,1′H-5,5′-bibenzo[d]imidazole] | < 1 mg/L | > 64 mg/L | no significant antibacterial activity |
